In ChEMBL document CHEMBL4888484, “Replenishing the malaria drug discovery pipeline: Screening and hit evaluation of the MMV Hit Generation Library 1 (HGL1) against asexual blood stage Plasmodium falciparum ,using a nano luciferase reporter read-out” (2022):
Screen size: about 150,000 compounds; about 540 (0.36%) showed an effect of 50% or more. The list shows a part of the results.

Each molecule was assayed on Plasmodium falciparum (assay: Primary screen in NF54 nanoGlo assay, in single point, at 2uM, 72h; a lower Z score goes with more inhibition). Conditions: timepoint 72 hour.
Assay type: functional, Erythrocyte

Compound | % Inhibition [%] | Z score
COC(=O)[C@H]1CCn2c(COc3cccc(C)c3)nnc2C1 | -6 | 0.98
O=C(NC1CC2CCC1C2)c1ccc(CN2CCOCC2)cc1 (stereo not given) | -8 | 0.94
O=S(=O)(CCNS(=O)(=O)c1cccc(Br)c1)Nc1ccccn1 | -15 | 2.31
CCC1(O)CCN(C(=O)N[C@@H](C)c2ccc(F)cc2Cl)C1 (stereo not given in full) | -9 | 1.78
CCOC(=O)Cc1cc(O)c2c(=O)n(-c3ccccc3)[nH]c2n1 | -16 | 2.38
Cc1cc(=O)cc(C)n1-c1ccccc1N1CCOCC1 | -2 | 0.2
O=C(c1cc(-c2ccc(F)cc2)c[nH]1)N1CC(S(=O)(=O)c2ccc(Cl)cc2)C1 | 1 | -0.17
CC1(C)CCN1C(=O)c1cc(Cl)c2c(c1)OCCCO2 | 27 | -3.02
CCc1cccn(Cc2nccc(C)n2)c1=O | -15 | 2.34
CCn1ncc(C(=O)N(CCOC)Cc2scnc2C)n1 | 5 | -0.55
CCOCCO[C@@H](C)C(=O)N(Cc1ccccn1)C(C)C | -14 | 2.05
CC(=O)N1CCc2cc(N[C@@H](C)C(=O)N3CCC(C)CC3)ccc21 | -4 | 0.82
Cc1occc1C(=O)N1CC[C@H](OCCCc2ccccc2)C1 | -7 | 0.74
NC(=O)c1ccc(NC(=O)CN2CC(O)C2)cc1 | -6 | 0.82
O=C(CN1CCN(Cc2ccccc2)CC1)N[C@H]1CCc2ccccc21 | -22 | 2.25
O=C(O)[C@H]1CCCCN1C(=O)C1CC1c1ccc(F)c(F)c1 (stereo not given in full) | 3 | -0.28
CCc1cnc(CNC(=O)N(CC2CCC2)C(C)C)s1 | -17 | 2.4
CC(=O)c1ccc(S(=O)(=O)N2CCc3c(c(-c4nnc(-c5ccc(F)cc5)o4)nn3C)C2)cc1 | -9 | 1.08
CC1CCC(c2noc(C3(c4cccc(OC(F)(F)F)c4)CCC3)n2)O1 (stereo not given) | -19 | 2.17
CC(c1ccccc1)N1C(=O)C2C3CC(c4ccccc4)C(C3)C2C1=O (stereo not given) | 9 | -1.18
O=c1[nH]c(NC2CCCC2)nc2nccc(-c3ccccc3Cl)c12 | -11 | 1.56
Cc1ccc(-c2c[nH]c([C@@H]3CNC(=O)C3)n2)cc1C | -3 | 0.34

Compound | % Inhibition [%] | Z score
O=C(c1cnccn1)N1CC[C@H](S(=O)(=O)c2ccccc2)C1 | -18 | 3.1
Fc1ccccc1N1CCN(c2ncnc3c2nc2n3CCCCC2)CC1 | -9 | 1.29
O=C1[C@@H]2CCCN2C(=O)N1Cc1ccc(F)cc1 | -4 | 0.36
Cc1ccn(CC(=O)N2CC(c3ccccc3C)OCC2C)c(=O)c1 (stereo not given) | -9 | 0.77
Cc1nc(C(=O)NCCN(C)C2CCCCC2)c(C)o1 | -6 | 1.13
O=C(NC[C@H](O)C1CC1)Nc1ccc(Br)cn1 | -15 | 2.17
Cc1nn(-c2ccccc2)c(C)c1C(=O)NCc1cccnc1N1CCN(C)CC1 | 3 | -0.37
O=C(NC1CCN(c2nnc3ccccn23)CC1)c1ccoc1 | 34 | -3.89
O=C1C[C@H](Nc2ccc3c(c2)OCCCO3)C(=O)N1CCc1ccccc1F | 1 | -0.13
Cc1cc(NC(=O)N2CC3(CC=CC3)[C@@H]2C(C)C)cc(C(N)=O)c1 | -2 | 0.22
O=S1(=O)NC(c2ccccc2)(c2ccccc2)c2ccccc21 | 36 | -4.67
CNc1snc(C)c1C(=O)OCc1nnc(-c2ccccc2)o1 | -31 | 3.63
CC(NC(=O)c1coc(CN(Cc2cccc(F)c2)C(C)c2ccccc2)n1)c1ccccc1 (stereo not given) | -1 | 0.23
O=C(Nc1ccccc1)N1CCO[C@@H](CN2CCCN(C(=O)c3ccc4ccccc4c3)CC2)C1 | -4 | 0.69
CNC(=O)[C@H]1CC[C@H](CNc2nc(C)ncc2C)CC1 | -6 | 1.1
O=C1NC[C@@H]2CCC[C@@H](CCOc3ccccc3C(=O)N3CCN(CC4CCCCC4)C[C@@H]13)O2 | -2 | 0.32
Cc1cc(C(=O)N2CC(O)C2)c(C)n1C1CC1 | -10 | 1.97
C[C@H]1CCN(C(=O)Nc2ccc(OCc3ccccc3)nc2)CCO1 | 2 | -0.32
Cc1cccc([C@H]2C(=O)NCCN2C(=O)Cc2nc(C)sc2C)c1 | -9 | 1.71
Cc1c(Cl)cccc1S(=O)(=O)N1CCN(c2cccnc2)C(=O)C1 | 32 | -0.65
O=C(C[C@@]1(O)C(=O)N(CN2CCOCC2)c2ccccc21)c1ccccc1O | -10 | 1.08
CNS(=O)(=O)c1ccc(N[C@H]2CCC[C@H]2Oc2cc(F)cc(F)c2)c(F)c1 | -3 | 0.51

Compound | % Inhibition [%] | Z score
CN(Cc1ncc[nH]1)Cc1ccc(Cl)s1 | 8 | -0.91
O=C(NCc1cccc(F)c1)N1C[C@H]2CC[C@@H](C1)N(CC1CCC1)C2=O | -9 | 1.7
CCOCCC(=O)Nc1cc(C)cc(C)c1 | -10 | 1.88
C[C@@H](Cc1ccc(Br)cc1F)NC(=O)C1(O)CCC1 | -11 | 1.14
CCn1c(=O)[nH]c2c(c1=O)C(C)(C)Cc1ccccc1-2 | -14 | 1.55
CN(CCC[C@H]1CCCO1)c1nc(NC2CC2)nc2c1CCNCC2 | 5 | -0.65
O=C(NC1CCCCC1)c1cn(-c2ccc(S(=O)(=O)N3CCCC3)cn2)cn1 | -23 | 3.68
CC(C)n1cc(C(=O)N[C@H]2COCC2(C)C)cn1 | 0 | 0.01
O=C(Cn1ccc2ccccc21)N1C2C=CCC1CC2 (stereo not given) | 0 | 0.01
CCN(C(=O)NCCc1cccc(C(N)=O)c1)[C@H]1CCN(Cc2ccccc2)C1 | 0 | -0.1
CCCc1cn(C2CCN(C(=O)c3cc4c(nc3OC)CCC4)CC2)nn1 | -8 | 1.3
CC1(C)CC(=O)N(Cc2cn3ccccc3n2)C1=O | 33 | -3.77
CN1CCCC(NC(=O)NCC(C)(C)C2COCC23OCCO3)C1=O (stereo not given) | -2 | 0.34
COc1ccc(CN2C(=O)CN(C3CCCCCC3)C(=O)[C@@H]2c2ccc(Cl)cc2)cc1 | -11 | 2.04
CNC(=O)C(=O)Nc1ccc(C)cc1C | -11 | 1.44
Clc1ccccc1OCCn1nc(C2CC2)nc1C1CC1 | 2 | -0.37
CCn1c(C)nnc1Cn1ccc2ccn(Cc3ccccc3)c2c1=O | -12 | 1.41
CCCN(CC)c1ccc(C(=O)N[C@H]2CCOC(C)(C)C2)cn1 | -19 | 3.56
NC(=O)C1CCN(C2CN(C(=O)NC(c3ccccc3)c3ccccc3)C2)CC1 | -4 | 0.53
CN=C(NCc1ccccc1N(C)CCOC)N(C)C | -10 | 1.23
CNC(=O)C1CCCCC1NC(=O)NCC(C)c1nc(C)cs1 (stereo not given) | -4 | 0.49
CC[C@H]1C=CCN1C(=O)c1ccc(S(C)(=O)=O)cc1 | 24 | -3.27

Compound | % Inhibition [%] | Z score
C[C@H](NC(=O)c1ccccc1Cl)C(=O)NCCC(c1ccccc1)c1ccccc1 | 4 | -0.7
O=C1CCCc2cc(NC(=O)N[C@H]3CC[C@@H](C(=O)N4CCCCC4)C3)ccc2N1 | -17 | 2.42
Cc1ccnc(Oc2ccc(-c3ccccc3)cc2)n1 | -3 | 0.34
CCNc1nc(C(=O)NC[C@H]2CCCCN2CCO)cs1 | -9 | 1.75
Cc1nn(C(C)C)c(C)c1Nc1cnc2ccccc2n1 | -10 | 1.74
COc1cc2c(cc1OC)CN(C(=O)c1ccc(S(=O)(=O)N[C@H]3CCS(=O)(=O)C3)cc1)CC2 | -16 | 2.34
C=CC[C@@H]1NC2(CCCCC2)Cc2cc(OC)c(OC)cc21 | 8 | -0.7
CC(=O)c1ccc(OC23CCCN(CC2)C3)cc1C (stereo not given) | 0 | 0.06
Cc1ccc(Nc2cc(N3CCN(C(=O)COc4ccc(Cl)c(C)c4)CC3)ncn2)cc1 | -8 | 1.33
Cc1cn2nc(N3CCN([C@H]4CCS(=O)(=O)C4)CC3)sc2n1 | 6 | -1.35
COc1cccc(NC(=O)c2ccc3nc(C(C)C)oc3c2)c1 | 4 | -0.67
COc1ccc(CCC(=O)NC2CCN(c3ncnc4c3CCCC4)CC2)cc1 | -17 | 2.19
O=C([C@@H]1CC[C@H](CN2CCOCC2)O1)N1C[C@@H](F)C[C@H]1CO | -3 | 0.33
CC(C)c1nc(CCNC(=O)CCCc2ccc(F)cc2)no1 | -7 | 0.89
Cc1cccc(C(=O)N=C(N)Nc2nc3ccccc3s2)c1 | -8 | 0.72
CN(C)c1ccccc1NC(=O)Cc1cnn(-c2ccccc2)c1 | -8 | 0.69
O=C(CC1CC1)NC1CCC(F)(F)CC1 | -9 | 1.45
Cc1nn(CCC(=O)N2C[C@@H]3CC[C@H]2CN(S(C)(=O)=O)C3)c(C)c1C | -6 | 1.09
COc1ccc2cc1Oc1cccc(c1)CO[C@H]1CN(C(=O)c3cnn(C)c3)C[C@@H]1NC(=O)CN(C)C2 | 4 | -0.6
